Test results published in the antibiotic and cytotoxicity screens of Wong et al. (2023).
The list shows a part of the results.

Tested on: S. aureus RN4220
Assay: growth inhibition call (relative growth <= 0.2)
Details: 50 µM

SMILES	growth inhibition call
C[C@@H]1CN([C@@H](C)CO)C(=O)c2cc(C#Cc3ccc(F)cc3)cnc2O[C@H]1CN(C)Cc1ccccn1	inactive
COc1ccc(S(=O)(=O)Nc2ccc3c(c2)C(=O)N([C@H](C)CO)C[C@H](C)[C@H](CN(C)Cc2ccc(C(F)(F)F)cc2)OCCCC[C@@H](C)O3)cc1	inactive
CCn1cc(C(=O)O)c(=O)c2cnc(N3CCNCC3)nc21	inactive
CN(C)C(=O)C[C@H]1C=C[C@H](NC(=O)C2CCOCC2)[C@H](CO)O1	inactive
COc1ccc(C#Cc2ccc3c(c2)O[C@@H](CN(C)C(=O)CN2CCOCC2)[C@@H](C)CN([C@@H](C)CO)S3(=O)=O)cc1	inactive
COc1ccc(cc1)CN1C[C@]2(CN(C2)C(=O)C2CCOCC2)c2c(n(c3cc(ccc23)OC)C)[C@@H]1CO	inactive
C[C@H](CO)N1C[C@H](C)[C@@H](CN(C)Cc2ccc(C(F)(F)F)cc2)Oc2ccc(NC(=O)Nc3ccc4c(c3)OCO4)cc2C1=O	inactive
CC(C)NC(=O)Nc1ccc2c(c1)C(=O)N([C@H](C)CO)C[C@@H](C)[C@H](CN(C)C(=O)Nc1ccccc1)OCCCC[C@@H](C)O2	inactive
Cc1cc(C(=O)Nc2cccc3c2O[C@H](CN(C)S(=O)(=O)c2cn(C)cn2)[C@@H](C)CN([C@H](C)CO)C3=O)n(C)n1	inactive
CC(=O)O[C@@H]1[C@@H](OC(C)=O)[C@@H]2OC[C@@H](O2)[C@H]1OC(C)=O	inactive
COc1ccc(NC(=O)Nc2ccc3c(c2)C(=O)N([C@H](C)CO)C[C@H](C)[C@H](CN(C)Cc2ccc4c(c2)OCO4)OCCCC[C@@H](C)O3)cc1	inactive
Cc1noc(C)c1NC(=O)N(C)C[C@@H]1OCCCC[C@@H](C)Oc2ccc(NS(=O)(=O)c3ccc(F)cc3)cc2C(=O)N([C@H](C)CO)C[C@H]1C	inactive
O=C(Nc1ccc2c(c1)[C@@H]1C[C@@H](CC(=O)N3CCc4ccccc4C3)O[C@H](CO)[C@@H]1O2)C1CCOCC1	inactive
C[C@@H]1CN([C@H](C)CO)C(=O)c2cc(NS(C)(=O)=O)ccc2O[C@H]1CN(C)S(=O)(=O)c1cccs1	inactive
Cc1ccc(S(=O)(=O)N[C@@H]2CC[C@@H](CCNC(=O)CN3CCOCC3)O[C@H]2CO)cc1	inactive
Cc1ccc(S(=O)(=O)N(C)C[C@@H]2OCCCC[C@@H](C)Oc3ccc(NC(=O)Nc4ccc(C(F)(F)F)cc4)cc3C(=O)N([C@@H](C)CO)C[C@H]2C)cc1	inactive
OCC1OC(OC2C(CO)OC(O)C(O)C2O)C(O)C(O)C1O (stereo not given)	inactive
C[C@@H]1CN([C@H](C)CO)C(=O)c2cc(NC(=O)Nc3ccc(C(F)(F)F)cc3)ccc2O[C@@H](C)CCCCO[C@@H]1CN(C)S(=O)(=O)c1cccs1	inactive
COCC(=O)Nc1ccccc1C(=O)O	inactive
Cc1noc(C)c1NC(=O)Nc1cccc2c1O[C@@H](CN(C)C(=O)Nc1cccc3ccccc13)[C@@H](C)CN([C@@H](C)CO)C2=O	inactive
COc1ccc(CN(C)C[C@@H]2Oc3ccc(NS(C)(=O)=O)cc3C(=O)N([C@H](C)CO)C[C@H]2C)cc1	inactive
CCS(=O)(=O)NCC[C@@H]1CC[C@@H](NC(=O)C2CCOCC2)[C@@H](CO)O1	inactive
O=C1Nc2ccccc2O[C@@H]1CCO	inactive
O=C(NCC(F)(F)F)[C@@H]1c2ccccc2C(=O)N(CC23CC4CC(CC(C4)C2)C3)[C@H]1c1ccc(CO)cc1	inactive
CC(=O)O[C@@H]1[C@@H](O[C@@H]2O[C@H](CO)[C@@H](O)[C@H](O)[C@H]2O)[C@@H](O)[C@H](OC[C@H]2O[C@@H](Oc3c(-c4ccc(O)c(O)c4)oc4cc(O)cc(O)c4c3=O)[C@H](O)[C@@H](O)[C@H]2O)O[C@H]1C	inactive
Cc1cc2c(o1)CC(C)(C)CC2=O	inactive
C[C@H]1COc2c(C3(N)CC3)c(F)cc3c(=O)c(C(=O)O)cn1c23	active
C[C@@H]1CCCCO[C@H](CN(C)C(=O)NC2CCCCC2)[C@H](C)CN([C@@H](C)CO)C(=O)c2cc(NC(=O)c3ccccc3)ccc2O1	inactive
C[C@H](CO)N1C[C@H](C)[C@H](CN(C)C(=O)Nc2ccc(F)cc2)Oc2c(NC(=O)c3ccc(-c4nccs4)cc3)cccc2C1=O	inactive
C[C@@H]1CCCCO[C@@H](CN(C)S(=O)(=O)c2ccc(Cl)cc2)[C@H](C)CN([C@H](C)CO)C(=O)c2cc(NC(=O)Nc3ccc(C(F)(F)F)cc3)ccc2O1	inactive
